# Experimental data as given in the supplement of paper PMC12582362.
# Counter-ions that a name gives are not always drawn. Screen size: about 1,500 compounds; about 30 (2%) showed activity.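 How the source made its calls: active = robust z-score below -2; a few such results were not called.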 The list shows a part of the results.
# Test system: optoTopBP1 Flp-In 293 T-REx (HEK293) cells
# Assay: light-induced TopBP1 condensate (nuclear foci) count, plate-normalised robust z-score vs non-control wells; higher = more TopBP1 condensates (negative = condensation inhibitor), active = hit call of the paper
# Details: 10 µM; incubation time 2 h
row,SMILES,light-induced TopBP1 condensate (z-score)
1,CCCCCN(CCCCC)C(=O)C(CCC(=O)O)NC(=O)c1ccc(Cl)c(Cl)c1 (stereo not drawn) [Lorglumide sodium salt],inactive: -0.914
2,CCCC1O[C@@H]2C[C@H]3[C@@H]4CCC5=CC(=O)C=C[C@]5(C)[C@H]4[C@@H](O)C[C@]3(C)[C@]2(C(=O)CO)O1 (stereo partly drawn) [Budesonide],inactive: -0.413
3,CC(C)Cc1ccc(C(C)C(=O)OCc2ccccn2)cc1 (stereo not drawn) [Ibuprofen Piconol],inactive: -0.445
4,CC(C)(C)C(=O)C(Oc1ccc(Cl)cc1)n1ccnc1 (stereo not drawn) [Climbazole],inactive: 0.236
5,Cc1ccccc1OCC(O)CO (stereo not drawn) [Mephenesin],inactive: 0.652
6,C[C@H](N)[C@H](O)c1cccc(O)c1 [Metaraminol bitartrate],inactive: 0.925
7,CCN(CC)CCOC(=O)C(Cc1cccc2ccccc12)CC1CCCO1 (stereo not drawn) [Nafronyl oxalate],inactive: 0.19
8,CC1(C)S[C@@H]2[C@H](NC(=O)C(C(=O)O)c3ccccc3)C(=O)N2[C@H]1C(=O)O (stereo partly drawn) [Carbenicillin disodium salt],inactive: 0.692
9,O=C1CN(/N=C/c2ccc(-c3ccc([N+](=O)[O-])cc3)o2)C(=O)N1 [Dantrolene sodium salt],inactive: 0.14
10,CCOC(=O)n1ccn(C)c1=S [Carbimazole],inactive: 0.956
11,O=C(O)c1ccccc1Nc1cc(Cl)ccc1C(=O)O [Lobenzarit disodium],inactive: 0.707
12,CC1(C)S[C@@H]2[C@H](NC(=O)[C@H](C(=O)O)c3ccsc3)C(=O)N2[C@H]1C(=O)O [Ticarcillin sodium],inactive: 0.209
13,CN[C@@H]1[C@@H](O)[C@@H](O[C@@H]2[C@@H](O)[C@H](O[C@H]3OC(CN)=CC[C@H]3N)[C@@H](N)C[C@H]2N)OC[C@]1(C)O [Sisomicin sulfate],inactive: 0.652
14,CC[C@H]1OC(=O)C[C@@H](O)[C@H](C)[C@@H](O[C@@H]2O[C@H](C)[C@@H](O[C@H]3C[C@@](C)(O)[C@@H](O)[C@H](C)O3)[C@H](N(C)C)[C@H]2O)[C@@H](CC=O)C[C@@H](C)C(=O)/C=C/C(C)=C/[C@@H]1CO[C@@H]1O[C@H](C)[C@@H](O)[C@@H](OC)[C@H]1OC [Tylosin],inactive: 0.755
15,O=C(CCCCCCC(=O)Nc1ccccc1)NO [Vorinostat],inactive: 0.977
16,COC(=O)C1=C(C)NC(C)=C(C(=O)OC2CCCN(Cc3ccccc3)C2)C1c1cccc([N+](=O)[O-])c1 (stereo not drawn) [Benidipine hydrochloride],inactive: -1.09
17,CCNC(=O)CCC/C=C\C[C@@H]1[C@@H](/C=C/[C@@H](O)CCc2ccccc2)[C@H](O)C[C@@H]1O [Bimatoprost],inactive: 1.78
18,C[C@]12C[C@H](O)[C@H]3[C@@H](CCC4=CC(=O)CC[C@@]43C)[C@@H]1CC[C@@H]2C(=O)CO [Corticosterone],inactive: 1.02
19,CC1(C)O[C@@H]2C[C@H]3[C@@H]4CCC5=CC(=O)C=C[C@]5(C)[C@H]4[C@@H](O)C[C@]3(C)[C@]2(C(=O)CO)O1 [Desonide],inactive: -0.951
20,CCN(CC)C(=S)SSC(=S)N(CC)CC [Disulfiram],active: -4.41
21,C/C(=C(\CCOP(=O)(O)O)SC(=O)c1ccccc1)N(C=O)Cc1cnc(C)nc1N [Benfotiamine],inactive: 1.34

row,SMILES,light-induced TopBP1 condensate (z-score)
1,Nc1c2c(nc3ccccc13)CCCC2 [Tacrine hydrochloride],inactive: 0.977
2,CN1CC(O)C2=C/C(=N/NC(N)=O)C(=O)C=C21 (stereo not drawn) [Carbazochrome],inactive: -0.923
3,NC[C@@H]1O[C@@H](O[C@H]2[C@H](O)[C@@H](O[C@H]3O[C@H](CO)[C@@H](O)[C@H](N)[C@H]3O)[C@H](N)C[C@@H]2N)[C@@H](O)[C@H](O)[C@H]1O [Kanamycin A sulfate],inactive: 0.0568
4,COC(=O)C1=C(C#N)NC(C)=C(C(=O)OC(C)C)C1c1cccc([N+](=O)[O-])c1 (stereo not drawn) [Nilvadipine],inactive: 0.904
5,CC1CC(OC(=O)c2ccccc2O)CC(C)(C)C1 (stereo not drawn) [Homosalate],inactive: 0.705
6,C[C@H](CCC(=O)O)[C@H]1CC[C@H]2[C@@H]3[C@@H](O)C[C@@H]4C[C@H](O)CC[C@]4(C)[C@H]3CC[C@]12C [Urosiol],inactive: 0.273
7,C#C[C@]1(O)CC[C@H]2[C@@H]3CCC4=CCCC[C@@H]4[C@H]3CC[C@@]21C [Lynestrenol],inactive: 1.39
8,O=C(CCCN1CCN(c2ccccn2)CC1)c1ccc(F)cc1 [Azaperone],inactive: -0.633
9,Nc1c2ccccc2nc2ccccc12 [Aminacrine],inactive: -2.02
10,CN1CCC(=C2c3ccccc3Sc3ccccc32)CC1 [Pimethixene maleate],inactive: -1.21
11,Cc1ccc(=O)n(-c2ccccc2)c1 [Pirfenidone],inactive: 1.02
12,N[C@@H](Cc1cc(I)c(Oc2ccc(O)c(I)c2)c(I)c1)C(=O)O [Liothyronine],inactive: -0.187
13,CN1CCN(C(c2ccccc2)c2ccccc2)CC1 [Cyclizine hydrochloride],inactive: -0.648
14,OCCN(CCO)c1nc(N2CCCCC2)c2nc(N(CCO)CCO)nc(N3CCCCC3)c2n1 [Dipyridamole],inactive: 0.235
15,CN(c1nccc(=O)[nH]1)C1CCN(c2nc3ccccc3n2Cc2ccc(F)cc2)CC1 [Mizolastine],inactive: -0.786
16,O=C(O)c1ccccc1C(=O)Nc1ccc(S(=O)(=O)Nc2nccs2)cc1 [Phthalylsulfathiazole],inactive: -0.678
17,CC(=O)OC(C)OC(=O)C(C)c1ccc(-c2ccccc2)c(F)c1 (stereo not drawn) [Flurbiprofen axetil],inactive: -0.559
18,CO[C@@H]1[C@@H](O[C@@H]2O[C@H](C)[C@@H](O[C@H]3C[C@@](C)(O)[C@@H](OC(=O)CC(C)C)[C@H](C)O3)[C@H](N(C)C)[C@H]2O)[C@@H](CC=O)C[C@@H](C)[C@@H](O)/C=C/C=C/C[C@@H](C)OC(=O)C[C@H]1OC(C)=O [Josamycin],inactive: 0.593
19,CC(=O)CC(c1ccccc1)c1c(O)c2ccccc2oc1=O (stereo not drawn) [Warfarin],inactive: 0.476
20,CCC(=O)O[C@@H]1CC(=O)O[C@H](C)C/C=C/C=C/[C@H](O)[C@H](C)C[C@H](CC=O)[C@H](O[C@@H]2O[C@H](C)[C@@H](O[C@H]3C[C@@](C)(O)[C@@H](OC(=O)CC)[C@H](C)O3)[C@H](N(C)C)[C@H]2O)[C@H]1OC [Midecamycin],inactive: 0.963
21,CCN(CC)CC(=O)Nc1c(C)cccc1C [Lidocaine hydrochloride],inactive: 1.15

row,SMILES,light-induced TopBP1 condensate (z-score)
1,c1ccc2c(CC3=NCCN3)cccc2c1 [Naphazoline hydrochloride],inactive: 0.384
2,CC(=O)OCC(=O)[C@@]12OC(C)(C)O[C@@H]1C[C@H]1[C@@H]3C[C@H](F)C4=CC(=O)C=C[C@]4(C)[C@@]3(F)[C@@H](O)C[C@@]12C [Fluocinonide],inactive: 1.06
3,C=CC1=C(C(=O)O)N2C(=O)[C@@H](NC(=O)/C(=N\O)c3csc(N)n3)[C@H]2SC1 [Cefdinir],inactive: 0.295
4,CC(=O)NS(=O)(=O)c1ccc(N)cc1 [Sulfacetamide sodic hydrate],inactive: 0.766
5,Cc1cn([C@H]2C=C[C@@H](CO)O2)c(=O)[nH]c1=O [Stavudine],inactive: -0.356
6,Cc1c(NC(=O)c2cccnc2)c(=O)n(-c2ccccc2)n1C [Nifenazone],inactive: 0.773
7,CS(=O)(=O)OCCCCOS(C)(=O)=O [Busulfan],inactive: 0.846
8,N[C@@H](Cc1c[nH]c2ccccc12)C(=O)O [L-tryptophan],inactive: 0.55
9,CO/N=C(\C(=O)N[C@@H]1C(=O)N2C(C(=O)[O-])=C(C[n+]3cccc4c3CCC4)CS[C@H]12)c1csc(N)n1 [Cefpirome],inactive: 0.182
10,CC(C)NC[C@@H](O)COc1ccc(CC(N)=O)cc1 [(R)-(+)-Atenolol],inactive: -0.871
11,NS(=O)(=O)c1cc2c(cc1C(F)(F)F)NCNS2(=O)=O [Hydroflumethiazide],inactive: 0.166
12,CC[C@@H]1C(=O)OC[C@@H]1Cc1cncn1C [Pilocarpine nitrate],inactive: 0.176
13,NC(=O)c1cnccn1 [Pyrazinamide],inactive: 0.106
14,N/C(=N\C(=O)c1nc(Cl)c(N)nc1N)NCc1ccccc1 [Benzamil hydrochloride],inactive: -0.0733
15,O=C(CCNNC(=O)c1ccncc1)NCc1ccccc1 [Nialamide],inactive: 0.388
16,N#C/C(=C1/SCC(c2ccccc2Cl)S1)n1ccnc1 (stereo not drawn) [Lanoconazole],inactive: 0.321
17,CSc1nc2cc(Cl)c(Oc3cccc(Cl)c3Cl)cc2[nH]1 [Triclabendazole],active: -2.43
18,Cc1nc2ccccn2c(=O)c1CCN1CCC(C(=O)c2ccc(F)cc2)CC1 [Pirenperone],inactive: 0.141
19,COc1cccc2c1C(=O)c1c(O)c3c(c(O)c1C2=O)C[C@@](O)(C(=O)CO)C[C@@H]3O[C@H]1C[C@H](N)[C@@H](O)[C@H](C)O1 [Epirubicin hydrochloride],active: -3.05
20,CCCN(CCC)CCc1cccc2c1CC(=O)N2 [Ropinirole hydrochloride],inactive: -0.884
21,CC(=O)O[C@H]1C(=O)[C@@]2(C)[C@H]([C@H](OC(=O)c3ccccc3)[C@]3(O)C[C@H](OC(=O)[C@H](O)[C@@H](NC(=O)c4ccccc4)c4ccccc4)C(C)=C1C3(C)C)[C@]1(OC(C)=O)CO[C@@H]1C[C@@H]2O [Paclitaxel],inactive: -0.341
